In a compilation of properties of binary mixtures (doi:10.1016/j.fluid.2015.06.043):
Some of these densities may be calculated back from excess volumes.

Assay: xn = mol fraction of the nth substance listed
Conditions: 101 kPa

O + CC[n+]1ccccc1.O=S(=O)([O-])C(F)(F)F
x2 = 0
Conditions	mass density [kg/m3]
283.15 K	999.7
333.15 K	983.2
343.15 K	977.8

CC[n+]1ccccc1.O=S(=O)([N-]S(=O)(=O)C(F)(F)F)C(F)(F)F + O
mass density [kg/m3]
Conditions	283.15 K	293.15 K	298.15 K	303.15 K	313.15 K	333.15 K	343.15 K	353.15 K
x2 = 0.0043	1551.6	1541.4	1536.4	1531.4	1521.5	1501.9	1492.2	–
x2 = 0.087	1546.8	1536.6	–	1526.6	1516.6	1497	–	1477.5

CC[n+]1ccccc1.O=S(=O)([O-])C(F)(F)F + O
mass density [kg/m3]
Conditions	283.15 K	293.15 K	298.15 K	303.15 K	313.15 K	323.15 K	333.15 K	343.15 K	353.15 K
x1 = 0.067	1176.4	–	–	1163.7	1156.9	1149.7	1142.2	–	1126.3
x1 = 0.183	1288.1	1280.2	1276.2	1272.1	1264	1255.7	1247.3	1238.7	–
x1 = 0.498	–	1366.1	–	1357.8	1349.4	1341.1	1332.8	1324.4	1316.1
x1 = 0.689	–	1387.2	1383	1378.8	–	1362.3	1354	–	1337.7
x1 = 0.893	–	1401.9	1397.7	1393.5	1385.2	1377	1368.8	1360.7	–
x1 = 1	–	1409	1404.8	1400.6	1392.3	1384.1	1376	1367.8	1359.8
